Measurements as given in PMC4931317, “UtpA and UtpB chaperone nascent pre-ribosomal RNA and U3 snoRNA to initiate eukaryotic ribosome assembly” (Nature Communications, 2016).
These are yes or no findings as the source states them, for the method shown. Binding seen in cells or lysates may run through a third protein. Some binding calls cover weakened binding; strength is not graded here. For part of these data: Sequences can lack the tags named with a protein.

By UniProt entry, the sequences of proteins in these tests, tags left out.
UniProt P42945: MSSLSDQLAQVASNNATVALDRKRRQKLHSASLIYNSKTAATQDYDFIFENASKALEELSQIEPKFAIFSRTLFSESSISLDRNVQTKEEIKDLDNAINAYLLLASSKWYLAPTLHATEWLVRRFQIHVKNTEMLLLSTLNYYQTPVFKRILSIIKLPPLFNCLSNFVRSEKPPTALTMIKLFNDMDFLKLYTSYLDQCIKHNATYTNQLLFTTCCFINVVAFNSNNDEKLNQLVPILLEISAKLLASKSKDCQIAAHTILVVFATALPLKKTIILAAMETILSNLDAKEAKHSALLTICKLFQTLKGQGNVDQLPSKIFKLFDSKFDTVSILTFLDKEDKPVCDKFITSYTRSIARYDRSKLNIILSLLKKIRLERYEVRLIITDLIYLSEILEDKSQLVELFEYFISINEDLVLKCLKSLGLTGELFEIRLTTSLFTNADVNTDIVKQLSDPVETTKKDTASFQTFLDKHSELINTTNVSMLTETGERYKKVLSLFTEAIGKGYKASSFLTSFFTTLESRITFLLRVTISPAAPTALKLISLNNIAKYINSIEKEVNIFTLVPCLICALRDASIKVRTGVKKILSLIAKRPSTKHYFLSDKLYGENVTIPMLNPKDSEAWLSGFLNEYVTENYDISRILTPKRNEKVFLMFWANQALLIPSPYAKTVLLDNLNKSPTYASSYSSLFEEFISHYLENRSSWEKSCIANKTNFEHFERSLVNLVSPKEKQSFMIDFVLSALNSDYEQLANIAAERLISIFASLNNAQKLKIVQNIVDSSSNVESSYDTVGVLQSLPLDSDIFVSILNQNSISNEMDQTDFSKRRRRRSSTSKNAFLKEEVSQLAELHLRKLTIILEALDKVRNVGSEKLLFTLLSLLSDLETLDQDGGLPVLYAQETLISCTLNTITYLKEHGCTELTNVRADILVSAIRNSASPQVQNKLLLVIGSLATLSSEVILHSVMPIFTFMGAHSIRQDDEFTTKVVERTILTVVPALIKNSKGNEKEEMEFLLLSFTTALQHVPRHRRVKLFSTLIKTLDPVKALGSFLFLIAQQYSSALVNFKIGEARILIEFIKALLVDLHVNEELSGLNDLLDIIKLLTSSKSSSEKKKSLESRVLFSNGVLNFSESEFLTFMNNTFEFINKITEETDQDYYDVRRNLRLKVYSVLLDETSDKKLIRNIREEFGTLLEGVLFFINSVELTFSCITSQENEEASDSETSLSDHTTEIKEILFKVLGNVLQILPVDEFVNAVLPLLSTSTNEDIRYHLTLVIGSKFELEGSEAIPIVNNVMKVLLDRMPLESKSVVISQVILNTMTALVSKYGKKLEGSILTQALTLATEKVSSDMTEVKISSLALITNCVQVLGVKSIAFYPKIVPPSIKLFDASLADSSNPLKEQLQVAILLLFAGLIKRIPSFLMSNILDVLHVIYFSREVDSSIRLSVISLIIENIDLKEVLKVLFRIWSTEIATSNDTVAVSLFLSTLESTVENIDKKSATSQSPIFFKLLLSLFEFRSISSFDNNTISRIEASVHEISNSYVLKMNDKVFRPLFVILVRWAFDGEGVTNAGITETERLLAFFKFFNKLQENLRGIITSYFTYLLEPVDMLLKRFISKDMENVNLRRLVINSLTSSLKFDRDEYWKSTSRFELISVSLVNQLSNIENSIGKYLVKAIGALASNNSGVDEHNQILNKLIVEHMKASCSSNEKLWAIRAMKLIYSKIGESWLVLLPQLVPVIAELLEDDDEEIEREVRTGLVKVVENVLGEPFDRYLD

T1: Utp21-3myc-TEV-mCherry-Flag (S. cerevisiae) (UniProt Q06078)
T1 sequence: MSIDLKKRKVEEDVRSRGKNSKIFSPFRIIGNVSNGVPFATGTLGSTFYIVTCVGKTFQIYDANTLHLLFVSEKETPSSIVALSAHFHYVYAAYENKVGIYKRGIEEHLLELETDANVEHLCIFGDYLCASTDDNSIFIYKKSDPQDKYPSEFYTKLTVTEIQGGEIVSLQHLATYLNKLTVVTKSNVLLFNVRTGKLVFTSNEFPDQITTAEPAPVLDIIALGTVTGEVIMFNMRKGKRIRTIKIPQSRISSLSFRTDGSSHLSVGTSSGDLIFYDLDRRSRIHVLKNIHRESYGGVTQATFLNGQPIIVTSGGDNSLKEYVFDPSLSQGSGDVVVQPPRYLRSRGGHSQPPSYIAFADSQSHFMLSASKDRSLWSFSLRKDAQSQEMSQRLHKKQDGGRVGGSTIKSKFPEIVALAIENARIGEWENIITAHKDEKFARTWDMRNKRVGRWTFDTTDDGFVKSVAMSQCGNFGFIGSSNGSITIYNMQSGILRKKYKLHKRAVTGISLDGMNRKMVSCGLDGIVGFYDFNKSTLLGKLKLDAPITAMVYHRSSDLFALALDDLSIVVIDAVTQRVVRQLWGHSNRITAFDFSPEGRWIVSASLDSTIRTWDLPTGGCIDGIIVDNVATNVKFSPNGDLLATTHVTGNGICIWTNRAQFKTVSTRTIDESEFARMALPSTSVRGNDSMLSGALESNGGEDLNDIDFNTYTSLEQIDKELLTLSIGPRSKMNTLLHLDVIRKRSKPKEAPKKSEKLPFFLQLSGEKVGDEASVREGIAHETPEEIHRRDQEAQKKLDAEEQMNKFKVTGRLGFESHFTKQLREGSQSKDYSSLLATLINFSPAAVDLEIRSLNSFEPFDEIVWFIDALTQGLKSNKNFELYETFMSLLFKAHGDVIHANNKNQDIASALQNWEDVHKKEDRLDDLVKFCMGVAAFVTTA

B1: Utp5 (natural protein, S. cerevisiae, UniProt Q04177 1-643, looked up)
chain: MDSPVLQSAYDPSGQYLCYVTVALDKQRVGVQPTQRATSSGVDTVWNENFLYLEDSKLKVTCLKWVNLASSDTVAIILGMNNGEIWLYSVLANEVTYKFTTGNSYEIKDIDLMGNQLWCIDSSDAFYQFDLLQFKLLQHFRINNCVQLNKLTIVPAGDSVAQLLVASHSISLIDIEEKKVVMTFPGHVSPVSTLQVITNEFFISGAEGDRFLNVYDIHSGMTKCVLVAESDIKELSHSGQADSIAVTTEDGSLEIFVDPLVSSSTKKRGNKSKKSSKKIQIVSKDGRKVPIYNAFINKDLLNVSWLQNATMPYFKNLQWREIPNEYTVEISLNWNNKNKSADRDLHGKDLASATNYVEGNARVTSGDNFKHVDDAIKSWERELTSLEQEQAKPPQANELLTETFGDKLESSTVARISGKKTNLKGSNLKTATTTGTVTVILSQALQSNDHSLLETVLNNRDERVIRDTIFRLKPALAVILLERLAERIARQTHRQGPLNVWVKWCLIIHGGYLVSIPNLMSTLSSLHSTLKRRSDLLPRLLALDARLDCTINKFKTLNYEAGDIHSSEPVVEEDEDDVEYNEELDDAGLIEDGEESYGSEEEEEGDSDNEEEQKHTSSKQDGRLETEQSDGEEEAGYSDVEME
notes: Utp5, S. cerevisiae, subunit of UtpA; No tag is named for it in either strain; strains are in Supplementary Data 1; source: endogenous, S. cerevisiae YSK32, co-purified with Utp10-GFP; overexpressed (galactose promoter) in S. cerevisiae YSK122, co-purified with Utp15-mCherry
B2: Utp8 (natural protein, S. cerevisiae, UniProt P53276 1-713, looked up)
chain: MPSLSQPFRLATLPKIASLSNFSLQADYVQVADGTFNESTNNITLGISGSSISQYIINPTPKLTFDYPIPSTNIITACNAEKGQANIDGNIEASTDDEANNEKTINTQKKRNVEIWAFGLMVNKGNYTLNVITKALEDTTDTSNDHLSESDIDNKAYTGSDEFLSQYKIKAKAKVMSIKIDTKNSLVIAILQNGLIEIFDFKLTLLHSFDISYDNLKYAKWFTENGTEYVFVLCPLQDDKVCYKLLELTDCGSGESSPIKELSSTIIEGFSFENSKLCYQFGKLYKLNQGKIYIYSLPHCQLQQVIEFPMVDKLSPGDDLISFQPVSVNRVLLTVNNVIYLLDLLHCSTLSQRELTHVKTFQLLKSAVINSEKSHNSKTIAIGISTKNGPNPTSSLEIINIDVGTNTLKDSLGKSFQVGNNDSSVILKPLFDDKDINDKRVKCNDVSGDSSVPVLHCNEVIEKLSALQDNDITSFDDIFFKELKIKEEHYTEKDRYISDPGFLNKVLDLIFGKFSGNDYPKTLTFLLTHPLFPLSRTRNLLSLLRDQPRLFKQAIVTCPNLPLNELLEELFSIRNRELLLDISFRILQDFTRDSIKQEMKKLSKLDVQNFIEFITSGGEDSSPECFNPSQSTQLFQLLSLVLDSIGLFSLEGALLENLTLYIDKQVEIAERNTELWNLIDTKGFQHGFASSTFDNGTSQKRALPTYTMEYLDI
notes: Utp8, S. cerevisiae, subunit of UtpA; No tag is named for it in either strain; strains are in Supplementary Data 1; source: endogenous, S. cerevisiae YSK32, co-purified with Utp10-GFP; overexpressed (galactose promoter) in S. cerevisiae YSK122, co-purified with Utp15-mCherry
B3: Utp1 (Pwp2), endogenous (protein, UniProt P25635 1-923)
chain: MKSDFKFSNLLGTVYRQGNITFSDDGKQLLSPVGNRVSVFDLINNKSFTFEYEHRKNIAAIDLNKQGTLLISIDEDGRAILVNFKARNVLHHFNFKEKCSAVKFSPDGRLFALASGRFLQIWKTPDVNKDRQFAPFVRHRVHAGHFQDITSLTWSQDSRFILTTSKDLSAKIWSVDSEEKNLAATTFNGHRDYVMGAFFSHDQEKIYTVSKDGAVFVWEFTKRPSDDDDNESEDDDKQEEVDISKYSWRITKKHFFYANQAKVKCVTFHPATRLLAVGFTSGEFRLYDLPDFTLIQQLSMGQNPVNTVSVNQTGEWLAFGSSKLGQLLVYEWQSESYILKQQGHFDSTNSLAYSPDGSRVVTASEDGKIKVWDITSGFCLATFEEHTSSVTAVQFAKRGQVMFSSSLDGTVRAWDLIRYRNFRTFTGTERIQFNCLAVDPSGEVVCAGSLDNFDIHVWSVQTGQLLDALSGHEGPVSCLSFSQENSVLASASWDKTIRIWSIFGRSQQVEPIEVYSDVLALSMRPDGKEVAVSTLKGQISIFNIEDAKQVGNIDCRKDIISGRFNQDRFTAKNSERSKFFTTIHYSFDGMAIVAGGNNNSICLYDVPNEVLLKRFIVSRNMALNGTLEFLNSKKMTEAGSLDLIDDAGENSDLEDRIDNSLPGSQRGGDLSTRKMRPEVRVTSVQFSPTANAFAAASTEGLLIYSTNDTILFDPFDLDVDVTPHSTVEALREKQFLNALVMAFRLNEEYLINKVYEAIPIKEIPLVASNIPAIYLPRILKFIGDFAIESQHIEFNLIWIKALLSASGGYINEHKYLFSTAMRSIQRFIVRVAKEVVNTTTDNKYTYRFLVSTDGSMEDGAADDDEVLLKDDADEDNEENEENDVVMESDDEEGWIGFNGKDNKLPLSNENDSSDEEENEKELP
B4: Utp12 (Dip2), endogenous (protein, UniProt Q12220 1-943)
chain: MVKSYQRFEQAAAFGVIASNANCVWIPASSGNSNGSGPGQLITSALEDVNIWDIKTGDLVSKLSDGLPPGASDARGAKPAECTYLEAHKDTDLLAVGYADGVIKVWDLMSKTVLLNFNGHKAAITLLQFDGTGTRLISGSKDSNIIVWDLVGEVGLYKLRSHKDSITGFWCQGEDWLISTSKDGMIKLWDLKTHQCIETHIAHTGECWGLAVKDDLLITTGTDSQVKIWKLDIENDKMGGKLTEMGIFEKQSKQRGLKIEFITNSSDKTSFFYIQNADKTIETFRIRKEEEIARGLKKREKRLKEKGLTEEEIAKSIKESYSSFILHPFQTIRSLYKIKSASWTTVSSSKLELVLTTSSNTIEYYSIPYEKRDPTSPAPLKTHTIELQGQRTDVRSIDISDDNKLLATASNGSLKIWNIKTHKCIRTFECGYALTCKFLPGGLLVILGTRNGELQLFDLASSSLLDTIEDAHDAAIWSLDLTSDGKRLVTGSADKTVKFWDFKVENSLVPGTKNKFLPVLKLHHDTTLELTDDILCVRVSPDDRYLAISLLDNTVKVFFLDSMKFYLSLYGHKLPVLSIDISFDSKMIITSSADKNIKIWGLDFGDCHKSLFAHQDSIMNVKFLPQSHNFFSCSKDAVVKYWDGEKFECIQKLYAHQSEVWALAVATDGGFVVSSSHDHSIRIWEETEDQVFLEEEKEKELEEQYEDTLLTSLEEGNGDDAFKADASGEGVEDEASGVHKQTLESLKAGERLMEALDLGIAEIEGLEAYNRDMKLWQRKKLGEAPIKPQGNAVLIAVNKTPEQYIMDTLLRIRMSQLEDALMVMPFSYVLKFLKFIDTVMQNKTLLHSHLPLICKNLFFIIKFNHKELVSQKNEELKLQINRVKTELRSALKSTEDDLGFNVQGLKFVKQQWNLRHNYEFVDEYDQQEKESNSARKRVFGTVI
B5: Utp13, endogenous (protein, UniProt Q05946 1-817)
chain: MDLKTSYKGISLNPIYAGSSAVATVSENGKILATPVLDEINIIDLTPGSRKILHKISNEDEQEITALKLTPDGQYLTYVSQAQLLKIFHLKTGKVVRSMKISSPSYILDADSTSTLLAVGGTDGSIIVVDIENGYITHSFKGHGGTISSLKFYGQLNSKIWLLASGDTNGMVKVWDLVKRKCLHTLQEHTSAVRGLDIIEVPDNDEPSLNLLSGGRDDIINLWDFNMKKKCKLLKTLPVNQQVESCGFLKDGDGKRIIYTAGGDAIFQLIDSESGSVLKRTNKPIEELFIIGVLPILSNSQMFLVLSDQTLQLINVEEDLKNDEDTIQVTSSIAGNHGIIADMRYVGPELNKLALATNSPSLRIIPVPDLSGPEASLPLDVEIYEGHEDLLNSLDATEDGLWIATASKDNTAIVWRYNENSCKFDIYAKYIGHSAAVTAVGLPNIVSKGYPEFLLTASNDLTIKKWIIPKPTASMDVQIIKVSEYTRHAHEKDINALSVSPNDSIFATASYDKTCKIWNLENGELEATLANHKRGLWDVSFCQYDKLLATSSGDKTVKIWSLDTFSVMKTLEGHTNAVQRCSFINKQKQLISCGADGLIKIWDCSSGECLKTLDGHNNRLWALSTMNDGDMIVSADADGVFQFWKDCTEQEIEEEQEKAKLQVEQEQSLQNYMSKGDWTNAFLLAMTLDHPMRLFNVLKRALGESRSRQDTEEGKIEVIFNEELDQAISILNDEQLILLMKRCRDWNTNAKTHTIAQRTIRCILMHHNIAKLSEIPGMVKIVDAIIPYTQRHFTRVDNLVEQSYILDYALVEMDKLF
B6: Utp18, endogenous (protein, UniProt P40362 1-594)
chain: MTMATTAMNVSVPPPDEEEQLLAKFVFGDTTDLQENLAKFNADFIFNEQEMDVEDQEDEGSESDNSEEDEAQNGELDHVNNDQLFFVDDGGNEDSQDKNEDTMDVDDEDDSSSDDYSEDSEEAAWIDSDDEKIKVPILVTNKTKKLRTSYNESKINGVHYINRLRSQFEKIYPRPKWVDDESDSELDDEEDDEEEGSNNVINGDINALTKILSTTYNYKDTLSNSKLLPPKKLDIVRLKDANASHPSHSAIQSLSFHPSKPLLLTGGYDKTLRIYHIDGKTNHLVTSLHLVGSPIQTCTFYTSLSNQNQQNIFTAGRRRYMHSWDLSLENLTHSQTAKIEKFSRLYGHESTQRSFENFKVAHLQNSQTNSVHGIVLLQGNNGWINILHSTSGLWLMGCKIEGVITDFCIDYQPISRGKFRTILIAVNAYGEVWEFDLNKNGHVIRRWKDQGGVGITKIQVGGGTTTTCPALQISKIKQNRWLAVGSESGFVNLYDRNNAMTSSTPTPVAALDQLTTTISNLQFSPDGQILCMASRAVKDALRLVHLPSCSVFSNWPTSGTPLGKVTSVAFSPSGGLLAVGNEQGKVRLWKLNHY

Each binder was assayed against T2, Utp10-3C-GFP (S. cerevisiae, UniProt P42945 1-1769) (assay: pull-down; UtpA held via Utp10-GFP on anti-GFP nanobody sepharose (purified at 200 mM NaCl), then incubated 7 h at 4 °C in buffer with 800 mM NaCl; 3C elution; Coomassie-stained SDS-PAGE).
T2 construct: Utp10, S. cerevisiae, subunit of UtpA (200 kDa); GFP is joined through a 3C protease site; it holds the protein on the beads in a1-a3 and is cleaved off by 3C on elution, so it is absent in the SEC step and in the DSS cross-linking (a6); also called Utp10-GFP; Utp10-sbp-H14-3C-GFP; source: S. cerevisiae YSK32, C-terminal tag integrated in the genome, endogenous level; captured from lysate on …
For B1, the binding was “no binding (condition: 800 mM NaCl)”. B2 was tested, and the binding was “no binding (condition: 800 mM NaCl)”.

The binders below were run against T1, Utp21-3myc-TEV-mCherry-Flag (S. cerevisiae) (assay: pull-down + SEC; endogenous UtpA-independent UtpB from yeast lysate captured via Utp21-mCherry on anti-mCherry nanobody sepharose (buffer K: 100 mM CHES-NaOH pH 9, 300 mM potassium acetate, 5 mM EDTA, 1 mM DTT), TEV elution, Superose 6 Increase; peak fraction on SDS-PAGE).
In the case of B3, the binding is reported as “binds”. In the case of B4, the binding is reported as “binds”. With B5 the binding was “binds”. With B6 the binding was “binds”.
